From PubChem BioAssay AID485281 (National Center for Advancing Translational Sciences (NCATS), 2010)
In all, about 350,000 compounds went through this assay and about 260 (0.074%) were called active. Inconclusive means that the source gave no clear call. Such entries were picked first, then a sample of the others. Calls come from the whole dose curve; as a rule, active = well fitted inhibition curve with a large enough effect; inconclusive = small, poorly fitted or top-dose-only effect; inactive = no such curve, though single readings can be large or run the other way. Potencies beside an inconclusive call are fits to weak or partial responses and may not hold up.

What follows are molecules tested against Ferritin light chain (Equus caballus) (UniProt P02791) (assay: qHTS Assay for Identification of Novel General Anesthetics). Settings: apoferritin/1-aminoanthracene competitive binding, fluorescence; activity change, negative = displacement: at 77.5 µM (top of the series).
Method in brief: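 10 uM apoferritin + 50% sat. 1-AMA, PBS; cpd 10 min RT; Ex380/Em535 endpoint; normalized to free probe vs complex; 4-param Hill fit; propofol titration as pos. ctrl.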
% is set by controls: 0 for no effect and ±100 for the full control effect; potency is the fitted concentration of half-maximal effect; tags give direction and shape of the fitted curve.
Note: nearly all actives have a fitted effect of over 20% in size.

Sequence of UniProt P02791 (P02791 whole entry, looked up): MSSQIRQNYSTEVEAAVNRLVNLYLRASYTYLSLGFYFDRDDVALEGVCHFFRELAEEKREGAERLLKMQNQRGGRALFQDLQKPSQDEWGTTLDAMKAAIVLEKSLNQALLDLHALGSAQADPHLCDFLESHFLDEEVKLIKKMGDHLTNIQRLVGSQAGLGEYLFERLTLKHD

Potency, inactive:
CC(C)C[C@H](NC(=O)CNC(=O)[C@H](CCC(N)=O)NC(=O)[C@H](CC(C)C)NC(=O)[C@H](CC(C)C)NC(=O)[C@H](CCCNC(=N)N)NC(=O)[C@H](CCC(N)=O)NC(=O)[C@H](CC(C)C)NC(=O)[C@H](CCCNC(=N)N)NC(=O)[C@H](C)NC(=O)CNC(=O)[C@H](CCC(=O)O)NC(=O)[C@H](CCCNC(=N)N)NC(=O)[C@H](CC(C)C)NC(=O)[C@H](CCCNC(=N)N)NC(=O)[C@H](CO)NC(=O)[C@H](CC(C)C)NC(=O)[C@H](CCC(=O)O)NC(=O)[C@H](CO)NC(=O)[C@@H](NC(=O)[C@H](Cc1ccccc1)NC(=O)[C@@H](NC(=O)CNC(=O)[C@H](CC(=O)O)NC(=O)[C@H](CO)NC(=O)[C@@H](N)Cc1cnc[nH]1)[C@@H](C)O)[C@@H](C)O)C(=O)N[C@H](C(N)=O)C(C)C
Cc1cc(OCc2cc(C(=O)NC3CCC3)no2)cc(C)c1Cl
O=C(NCCCN1CCCCC1)c1ccc2c(c1)ncn2C1CCCC1
CSc1nc2ccc(NS(=O)(=O)c3cccc(Cl)c3Cl)cc2s1
Cc1ccc(CNc2cc(C)nc3nc(-c4ccc(C)cc4)nn23)cc1
CCOC(=O)c1c(-c2ccccc2)oc2ccc(OCC(O)CNCCN(C)C)cc12 (centres undefined)
COc1ccc(CNC(=O)c2c(O)c3cccc4c3n(c2=O)CCC4)cc1
CCc1ccccc1S(=O)(=O)Cc1ccc(C(=O)NCCc2ccc(Cl)cc2)o1
Cc1ccc(NC(=O)c2cc3c(s2)CCCC3)cc1S(=O)(=O)Nc1ccccc1Cl
CCC(C)(C)NC(=O)C(NS(=O)(=O)c1cccs1)c1ccccc1 (centres undefined)
N#C/C(=C\c1ccc(N2CCOCC2)o1)c1nc2ccccc2[nH]1
Clc1ccccc1-c1nn2c(-c3ccccn3)nnc2s1
CCCNC(=O)c1cc(Cl)c(NC(=O)C2=CSCCO2)cc1OC
Cc1ccc2c(c1)C1C=CCC1C(C(=O)O)N2 (centres undefined)
CCOc1ccc2nc(N3CCCC(C(=O)Nc4ccccc4CC)C3)sc2c1 (centres undefined)
CCCNC(=O)C/C(C)=N/NC(=O)C(=O)Nc1ccccn1
COC(=O)c1ccc(OCC2c3cc(OC)c(OC)cc3CCN2C(=O)c2ccc(OC)cc2)cc1 (centres undefined)
O=C(O)C1CCCN1c1ncccn1 (centres undefined)
COc1ccc(Nc2nc(C(=O)N3CCc4cc(OC)c(OC)cc4C3)cs2)cc1
Clc1ccc2nc(C3CCN(Cc4ccccc4)CC3)[nH]c2c1

Potency, inconclusive:
O=[N+]([O-])c1ccccc1CNC1CCCc2ccccc21 (centres undefined) 22.4 µM [inhibitor, partial curve]
CC(=O)Nc1ccc(NCc2cccs2)cc1 17.8 µM [inhibitor, partial curve]
CC(C)c1ccc(NC2CCCN(C(=O)c3ccoc3)C2)cc1 (centres undefined) 28.2 µM [inhibitor, single point]
CCOC(=O)C1=C(C)N(CC)C(=S)NC1c1ccccc1OC(F)F (centres undefined) 15.8 µM [inhibitor, partial curve]
COc1ccccc1-c1cc(C2CC2)nc(N)c1C#N 28.2 µM [inhibitor, partial curve]
NC(=S)N=Nc1c(O)n(CCCl)c2ccc(Cl)cc12 35.5 µM [inhibitor, partial curve]
O=C(CSc1ccccc1)NNC(=O)c1ccccc1O 17.8 µM [inhibitor, partial curve]
O=S(=O)(Nc1ccccc1N1CCOCC1)c1ccc(Cl)s1 39.8 µM [inhibitor, partial curve]
CN(C)c1cc[n+](CC(=O)Nc2ccc(Oc3ccccc3)cc2)cc1 28.2 µM [inhibitor, partial curve]
CN(C(=O)c1ccco1)c1nnc(C23CC4CC(CC(C4)C2)C3)s1 14.1 µM [inhibitor, partial curve, poor fit]
CC(C)CCNc1nc(Nc2ccccc2)c2cnn(C)c2n1 50.1 µM [inhibitor, single point]
Cc1cccc(NC(=S)NC(=O)/C=C/c2ccco2)n1 15.8 µM [inhibitor, partial curve]
NNC(=O)CSc1nnnn1-c1ccccc1 31.6 µM [inhibitor, single point]
CCOc1ccc(NC(=O)c2nc(S(=O)(=O)Cc3ccccc3F)ncc2Cl)cc1 12.6 µM [inhibitor, partial curve]
CCN(CC)C(=O)c1ccc(C(=O)c2c(C)cc(C)cc2C)cc1 31.6 µM [inhibitor, single point]
N#CC(c1cccc(C(F)(F)F)c1)(c1ncc(C(F)(F)F)cc1Cl)N1CCOCC1 (centres undefined) 14.1 µM [inhibitor, partial curve]
Cc1ccc(C(=O)NCc2ccc(Cl)c(Cl)c2)o1 35.5 µM [inhibitor, partial curve]
COCCN=C1OC(=O)N2C(=O)C3=C4C(C[C@H]5C(=O)N(c6ccccc6)C(=O)[C@H]5[C@H]4[C@@]12Cc1ccccc1)[C@H]1C(=O)N(c2ccccc2)C(=O)[C@H]1[C@H]3C (some centres undefined) 15.8 µM [inhibitor, partial curve]
Brc1ccccc1-c1csnn1 20 µM [inhibitor, partial curve]
O=S(=O)(Nc1ccc2ccccc2c1)c1ccccc1 39.8 µM [inhibitor, partial curve]
COc1ccc(C(=O)N2CCN(C(=O)c3ccc(-c4ccccc4)cc3)CC2)cc1OC 35.5 µM [inhibitor, single point]
CC1Oc2ccccc2N(CC(=O)c2ccccc2)C1=O (centres undefined) 56.2 µM [inhibitor, single point]
CC(C)c1ccc(/C=C/C(=O)NCc2ccc(S(N)(=O)=O)cc2)cc1 35.5 µM [inhibitor, partial curve]
O=S(=O)(NC1CC(NS(=O)(=O)OCC(Cl)(Cl)Cl)C2CCCCC12)OCC(Cl)(Cl)Cl (centres undefined) 35.5 µM [inhibitor, partial curve]
CCCCCCCSc1nsc(N)n1 35.5 µM [inhibitor, partial curve]
O=Cc1cc(Cl)ccc1OCCN1CCC(Cc2ccccc2)CC1 39.8 µM [inhibitor, partial curve]
CC(C)NC1=C(Cl)C(=O)c2ccccc2C1=O 35.5 µM [inhibitor, partial curve]
Cc1cc(-c2ccc(S(=O)(=O)Nc3cccc(C)c3C)s2)on1 17.8 µM [inhibitor, partial curve]
Cc1cc(C)n(-c2cccc(Cl)c2)c(=O)c1C#N 39.8 µM [inhibitor, single point]
CC(C)(C)C1CCc2nc(NC(=O)c3cccc(Cl)c3)sc2C1 (centres undefined) 12.6 µM [inhibitor, partial curve]
O=C(/C=C/c1ccco1)Nc1ccc(Oc2ccccc2)cc1 28.2 µM [inhibitor, partial curve]
Clc1ccc(-n2nnnc2-c2cnc3ccccc3c2-c2ccccc2)cc1 12.6 µM [inhibitor, partial curve]
CCCCCn1c(=O)c(F)cn(Cc2ccc(OC)c([N+](=O)[O-])c2)c1=O 31.6 µM [inhibitor, single point]
COc1ccc(C(O)P(=O)(OC(C)C)OC(C)C)cc1OC (centres undefined) 31.6 µM [inhibitor, partial curve]
O=C(Nc1cccc(F)c1)c1cc(S(=O)(=O)NCCC2=CCCCC2)ccc1F 25.1 µM [inhibitor, partial curve]
CC(=O)c1ccc(NC(=O)Nc2ccc(S(=O)(=O)N3CCCC3)cc2)cc1 14.1 µM [inhibitor, partial curve]
COc1cc2c(cc1OC)-c1cc(=Nc3c(C)cc(C)cc3C)n(C)c(=O)n1CC2 50.1 µM [inhibitor, single point]
O=C(NC(=S)Nc1ccc(CN2CCCCC2)cc1)c1cccc(OCc2ccccc2)c1 12.6 µM [inhibitor, partial curve]
N#CC1=C(N)S[C@H](C(=O)C23CC4CC(CC(C4)C2)C3)[C@H]1c1ccncc1 50.1 µM [inhibitor, single point]
Cc1cccc(C(=O)O/N=C(\N)Cc2ccc([N+](=O)[O-])cc2)c1 25.1 µM [inhibitor, partial curve]
O=C(CC1C(=O)OCCN1Cc1ccccc1)Nc1cccc(Cl)c1 (centres undefined) 50.1 µM [inhibitor, partial curve]
CCn1c(CNC(=O)C23CC4CC(CC(C4)C2)C3)nnc1SCC(=O)Nc1ccc(C)cc1 31.6 µM [inhibitor, partial curve]
Cc1ccc(NC(=S)NCc2ccc(Cl)cc2)c(OC(F)F)c1 31.6 µM [inhibitor, partial curve]

Activity change, negative = displacement, inactive:
COc1ccc(O[C@H]2C=C[C@@H](c3ccccc3)O[C@H]2COC(=O)CC/C(C)=N\OC[C@@H](O)[C@H]2O[C@H]3OC(C)(C)O[C@H]3[C@@H]2O)cc1 5.24% [at 15.3 µM]
